{
  "source": "paper PMC4336329",
  "about": "(PLoS ONE, 2015)",
  "note": "Hit rate of the full screen: of about 310,000 compounds, about 2,200 (0.71%) showed an effect of 50% or more. Effects have a minus sign here. Some of the results follow.",
  "data": [
    {"biological_target": "human ether-à-go-go-related gene (hERG) potassium channel (human, UniProt Q12809)", "sequence (Q12809 whole entry, looked up)": "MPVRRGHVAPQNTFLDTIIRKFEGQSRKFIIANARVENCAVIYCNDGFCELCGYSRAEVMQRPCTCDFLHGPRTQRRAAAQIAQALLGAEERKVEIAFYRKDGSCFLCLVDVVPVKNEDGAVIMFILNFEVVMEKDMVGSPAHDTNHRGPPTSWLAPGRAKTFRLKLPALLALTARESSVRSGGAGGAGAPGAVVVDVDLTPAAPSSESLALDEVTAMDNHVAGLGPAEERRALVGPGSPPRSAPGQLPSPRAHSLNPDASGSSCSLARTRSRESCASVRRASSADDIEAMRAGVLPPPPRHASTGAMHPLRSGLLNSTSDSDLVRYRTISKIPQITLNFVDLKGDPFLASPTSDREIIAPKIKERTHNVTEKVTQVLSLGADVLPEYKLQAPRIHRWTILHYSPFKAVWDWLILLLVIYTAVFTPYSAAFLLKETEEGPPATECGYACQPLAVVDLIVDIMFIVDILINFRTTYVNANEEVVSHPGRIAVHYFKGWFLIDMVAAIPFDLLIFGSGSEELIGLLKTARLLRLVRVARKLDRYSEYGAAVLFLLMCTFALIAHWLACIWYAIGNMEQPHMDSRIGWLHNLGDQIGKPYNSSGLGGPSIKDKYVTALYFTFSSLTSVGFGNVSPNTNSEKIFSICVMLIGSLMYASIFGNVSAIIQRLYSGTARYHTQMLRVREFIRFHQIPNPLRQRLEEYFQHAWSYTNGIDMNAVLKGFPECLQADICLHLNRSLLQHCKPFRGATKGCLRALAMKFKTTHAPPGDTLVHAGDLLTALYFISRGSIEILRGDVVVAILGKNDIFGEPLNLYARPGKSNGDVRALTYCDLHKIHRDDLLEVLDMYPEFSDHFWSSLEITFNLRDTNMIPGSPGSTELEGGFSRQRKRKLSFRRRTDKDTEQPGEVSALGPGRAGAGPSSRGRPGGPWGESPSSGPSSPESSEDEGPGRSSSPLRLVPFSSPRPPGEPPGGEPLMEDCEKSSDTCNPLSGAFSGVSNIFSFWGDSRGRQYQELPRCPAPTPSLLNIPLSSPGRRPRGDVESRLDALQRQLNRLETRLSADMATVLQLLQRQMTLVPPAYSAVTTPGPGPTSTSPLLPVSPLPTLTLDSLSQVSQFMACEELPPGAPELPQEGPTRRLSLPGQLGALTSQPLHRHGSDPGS", "test": "primary screen, population patch clamp on CHO cells stably expressing hERG", "units": {"hERG current change (%, negative = inhibition) at 1uM": "%"}, "values": [
      {"smiles": "COc1cc(NC(=O)C2=C(N3CCOCC3)/C(=C\\c3ccc(N(C)C)cc3)CCC2)cc(OC)c1OC", "hERG current change (%, negative = inhibition) at 1uM": 11.7},
      {"smiles": "CC1Oc2ccccc2N(CC(=O)N(Cc2ccccc2)Cc2ccccn2)C1=O", "note": "(stereo not drawn)", "hERG current change (%, negative = inhibition) at 1uM": 2.82},
      {"smiles": "Nc1nonc1-c1nc2ccccc2n1CC(=O)N1CCCCC1", "hERG current change (%, negative = inhibition) at 1uM": 10.7},
      {"smiles": "CCC(=O)Oc1ccc(C(=O)Nc2cccc(C(=O)NC(C)(C)C)c2)cc1", "hERG current change (%, negative = inhibition) at 1uM": 10},
      {"smiles": "CN(CC(=O)Nc1cccc(F)c1)C(=O)c1ccc(COc2ccccc2)cc1", "hERG current change (%, negative = inhibition) at 1uM": 2.21},
      {"smiles": "CCOc1cc(/C=C2/N=C(C)C(C(=O)OC)=C2O)ccc1O", "hERG current change (%, negative = inhibition) at 1uM": -8.64},
      {"smiles": "COc1ccc(CC(=O)O/N=C(\\N)c2cccc([N+](=O)[O-])c2)cc1", "hERG current change (%, negative = inhibition) at 1uM": 5.1},
      {"smiles": "CCCCSc1nnc([C@H](CC(C)C)NC(=O)OC(C)(C)C)o1", "hERG current change (%, negative = inhibition) at 1uM": -1.39},
      {"smiles": "O=C(CNc1n[nH]c(=O)[nH]c1=O)N/N=C/c1ccccc1", "hERG current change (%, negative = inhibition) at 1uM": 2.67},
      {"smiles": "Cc1ccc2nc3c(c(C(=O)O)c2c1)CCC3", "hERG current change (%, negative = inhibition) at 1uM": 12.6},
      {"smiles": "Cc1nc(NS(=O)(=O)c2cccc([N+](=O)[O-])c2)sc1C(C)(C)C", "hERG current change (%, negative = inhibition) at 1uM": 7.39},
      {"smiles": "N#C/C(=C/c1cc[nH]c1)C(N)=S", "hERG current change (%, negative = inhibition) at 1uM": 16.8},
      {"smiles": "COc1ccc(C)cc1S(=O)(=O)N1CCN(C(=O)c2ncoc2-c2ccccc2C)CC1", "hERG current change (%, negative = inhibition) at 1uM": 12.4},
      {"smiles": "c1ccc(CN2CCC(Nc3nc(-c4ccccc4)nc4ccccc34)CC2)cc1", "hERG current change (%, negative = inhibition) at 1uM": 4.83},
      {"smiles": "O=C(Nc1cccs1)Nc1ccc(F)cc1F", "hERG current change (%, negative = inhibition) at 1uM": 7.67},
      {"smiles": "O=C(CSc1nnc(-c2ccco2)o1)c1ccccc1", "hERG current change (%, negative = inhibition) at 1uM": 12.6},
      {"smiles": "CC1(C)Cc2ccccc2/C(=C/C(=O)N2CCCCCC2)N1.Cl", "hERG current change (%, negative = inhibition) at 1uM": 7.94},
      {"smiles": "Cc1cc(C)cc(NC(=O)COC(=O)c2cccc(S(=O)(=O)N3CCCCC3)c2)c1", "hERG current change (%, negative = inhibition) at 1uM": 6.02},
      {"smiles": "CCC1CCCCN1C(=O)COc1cc(=O)n(C)c2ccccc12", "note": "(stereo not drawn)", "hERG current change (%, negative = inhibition) at 1uM": 6.41},
      {"smiles": "Fc1ccc(-c2nnc3n2CCCCC3)cc1", "hERG current change (%, negative = inhibition) at 1uM": 9.08},
      {"smiles": "CC(NC(=O)COC(=O)Cc1ccsc1)C1CC2CCC1C2", "note": "(stereo not drawn)", "hERG current change (%, negative = inhibition) at 1uM": 0.548},
      {"smiles": "CC(Cc1cccnc1)NC(=O)c1cc(COc2ccc(F)cc2Cl)on1", "note": "(stereo not drawn)", "hERG current change (%, negative = inhibition) at 1uM": -9.74},
      {"smiles": "Cc1cc(Cl)c(C)c(S(=O)(=O)N2CCN(C(=O)C3CCCO3)CC2)c1Cl", "note": "(stereo not drawn)", "hERG current change (%, negative = inhibition) at 1uM": 1.36},
      {"smiles": "CCOc1ccccc1NC(=O)n1ncc2c(C)cccc21", "hERG current change (%, negative = inhibition) at 1uM": 8.44},
      {"smiles": "COc1ccc(/C=C/C(=O)OCC(=O)Nc2ccc(S(N)(=O)=O)cc2)cc1OC", "hERG current change (%, negative = inhibition) at 1uM": 1.84},
      {"smiles": "CCN(CC)c1ccc(N2C(=O)/C(=C/c3ccccn3)SC2=S)cc1", "hERG current change (%, negative = inhibition) at 1uM": 14.8},
      {"smiles": "CN1C(=O)C2C(c3ccc(N(C)C)cc3)=NN(Cc3ccccc3)C2C1=O", "note": "(stereo not drawn)", "hERG current change (%, negative = inhibition) at 1uM": 11.6},
      {"smiles": "COc1ccccc1C1C(C#N)=C(N)Oc2c1oc(CO)cc2=O", "note": "(stereo not drawn)", "hERG current change (%, negative = inhibition) at 1uM": 0.727},
      {"smiles": "Cc1cccc(C(=O)OCc2cncs2)c1", "hERG current change (%, negative = inhibition) at 1uM": 4.46},
      {"smiles": "CCOC(=O)c1c(C)[nH]c(N=Nc2ccccc2Cl)c1C", "hERG current change (%, negative = inhibition) at 1uM": 10.2},
      {"smiles": "CN1CCN(S(=O)(=O)c2cccc(C(=O)Nc3sc4c(c3-c3nc5ccccc5[nH]3)CCCC4)c2)CC1", "hERG current change (%, negative = inhibition) at 1uM": 0.151},
      {"smiles": "CCOC(=O)c1ccccc1NC(=O)CSc1nnc(Cc2cccn2C)n1-c1ccc(C)cc1", "hERG current change (%, negative = inhibition) at 1uM": -6.8},
      {"smiles": "CCOc1ccc(S(=O)(=O)N2CN3CCN(C3)C2)cc1", "hERG current change (%, negative = inhibition) at 1uM": 4.02},
      {"smiles": "CC1CN(c2nnnn2-c2ccccc2)CC(C)O1", "note": "(stereo not drawn)", "hERG current change (%, negative = inhibition) at 1uM": -16.8},
      {"smiles": "COC(=O)c1cccc(-c2ccc(C(c3c(C)[nH][nH]c3=O)c3c(C)[nH][nH]c3=O)o2)c1", "hERG current change (%, negative = inhibition) at 1uM": -2.67},
      {"smiles": "Cc1ccc(N2CC(C(=O)OCC(=O)Nc3ccccc3C)CC2=O)cc1", "note": "(stereo not drawn)", "hERG current change (%, negative = inhibition) at 1uM": 10.7},
      {"smiles": "Cc1ccccc1NC(=O)C(=O)NC(C)CCc1ccccc1", "note": "(stereo not drawn)", "hERG current change (%, negative = inhibition) at 1uM": 13.9},
      {"smiles": "COc1cc(S(=O)(=O)N2CCN(C)CC2)c(OC)cc1Br", "hERG current change (%, negative = inhibition) at 1uM": -3.58},
      {"smiles": "C/C=C/c1ccc(OCCCCN2CC(C)CC(C)C2)c(OC)c1.O=C(O)C(=O)O", "note": "(stereo not drawn)", "hERG current change (%, negative = inhibition) at 1uM": -32.3},
      {"smiles": "CC(C)c1ccc(NC(=O)CCNC(=O)Cn2cnc3ccccc3c2=O)cc1", "hERG current change (%, negative = inhibition) at 1uM": 11.6},
      {"smiles": "COc1ccc(N2CCN(S(=O)(=O)CCNC(=O)/C=C/c3ccc4c(c3)OCO4)CC2)cc1", "hERG current change (%, negative = inhibition) at 1uM": 12.1},
      {"smiles": "CCCOC1(NC(=O)c2ccccc2)C(C)=CC(=O)C=C1C", "hERG current change (%, negative = inhibition) at 1uM": -14.7},
      {"smiles": "C[C@H](NC(=O)c1cc2c(cn1)[nH]c1ccccc12)C(=O)O", "hERG current change (%, negative = inhibition) at 1uM": 7.61},
      {"smiles": "Cc1ccc(S(=O)(=O)N2CCN(C(=O)c3n[nH]c4ccccc34)CC2)cc1", "hERG current change (%, negative = inhibition) at 1uM": 6.59},
      {"smiles": "S=c1[nH]nc(-c2ccc(Cl)cc2)n1/N=C/C=C/c1ccco1", "hERG current change (%, negative = inhibition) at 1uM": 15.2}
    ]}
  ]
}
